Results taken from US8735349B2, “Method for improving glucose tolerance in a diabetes type 2 patient of younger than 50 years and having postprandial plasma glucose concentration of at least 14 mmol/L” (priority 2011, dated 2014).
Like-named read-outs stand apart in the source and are kept apart here.

Key:
[1] = system: obese type 2 diabetic patients younger than 50 and not adequately controlled with metformin; test: Example 2: composite responders (HbA1c <7% and weight loss of at least 5%) at Week 24, lixisenatide vs sitagliptin as add-on to metformin; conditions: mITT
[2] = system: obese type 2 diabetic patients younger than 50 and not adequately controlled with metformin; conditions: double-blind treatment period, 24 weeks
[3] = system: obese type 2 diabetic patients younger than 50 and not adequately controlled with metformin; test: Example 2: HbA1c change from baseline and HbA1c responders; conditions: for HbA1c, observed data, Mean / HbA1c, observed data, Median / HbA1c, change from baseline, Mean / HbA1c, change from baseline, Median: mITT population
[4] = system: obese type 2 diabetic patients younger than 50 and not adequately controlled with metformin; design: species or system human; conditions: in vivo
[5] = system: obese type 2 diabetic patients younger than 50 and not adequately controlled with metformin; conditions: human, in vivo
[6] = system: obese type 2 diabetic patients younger than 50 and not adequately controlled with metformin; test: Example 2: glucose excursion during a standardized meal challenge test; conditions: mITT
[7] = system: obese type 2 diabetic patients younger than 50 and not adequately controlled with metformin; test: Example 2: beta-cell function assessed by HOMA-beta; conditions: mITT
[8] = system: obese type 2 diabetic patients younger than 50 and not adequately controlled with metformin; conditions: human, in vivo; remark: listed apart in the source
[9] = system: obese type 2 diabetic patients younger than 50 and not adequately controlled with metformin; test: Example 2: patient disposition / premature treatment discontinuation; type: in vivo, human
[10] = system: obese type 2 diabetic patients younger than 50 and not adequately controlled with metformin; design: species or system human; conditions: in vivo; remark: listed apart in the source
[11] = system: obese type 2 diabetic patients younger than 50 and not adequately controlled with metformin; design: species or system human; conditions: in vivo; remark: listed apart in the source

SMILES: N[C@@H](CC(=O)N1CCn2c(nnc2C(F)(F)F)C1)Cc1cc(F)c(F)cc1F [sitagliptin]
- Responder (HbA1c <7% and weight loss of ≧5% of baseline body weight): No ([1]; Week 4): 157 (100%) n (%)
- Responder (HbA1c <7% and weight loss of ≧5% of baseline body weight): Yes ([1]; Week 4): 0 n (%)
- Responder (HbA1c <7% and weight loss of ≧5% of baseline body weight): No ([1]; Week 8): 150 (98.0%) n (%)
- Responder (HbA1c <7% and weight loss of ≧5% of baseline body weight): Yes ([1]; Week 8): 3 (2.0%) n (%)
- Responder (HbA1c <7% and weight loss of ≧5% of baseline body weight): No ([1]; Week 12): 144 (96.0%) n (%)
- Responder (HbA1c <7% and weight loss of ≧5% of baseline body weight): Yes ([1]; Week 12): 6 (4.0%) n (%)
- Responder (HbA1c <7% and weight loss of ≧5% of baseline body weight): No ([1]; Week 16): 141 (96.6%) n (%)
- Responder (HbA1c <7% and weight loss of ≧5% of baseline body weight): Yes ([1]; Week 16): 5 (3.4%) n (%)
- Responder (HbA1c <7% and weight loss of ≧5% of baseline body weight): No ([1]; Week 24): 124 (91.2%) n (%)
- Responder (HbA1c <7% and weight loss of ≧5% of baseline body weight): Yes ([1]; Week 24): 12 (8.8%) n (%)
- Responder (HbA1c <7% and weight loss of ≧5% of baseline body weight): No ([1]; Week 24 (LOCF)): 149 (92.5%) n (%)
- Responder (HbA1c <7% and weight loss of ≧5% of baseline body weight): Yes ([1]; Week 24 (LOCF)): 12 (7.5%) n (%)
- percentage of patients requiring rescue therapy [2]: 6.8%
- HbA1c, observed data, Mean ([3]; Baseline): 8.09%
- HbA1c, observed data, Median ([3]; Baseline): 8.00%
- HbA1c, observed data, Mean ([3]; Screening): 8.25%
- HbA1c, observed data, Median ([3]; Screening): 8.20%
- HbA1c, change from baseline, Mean ([3]; Week 4): −0.46%
- HbA1c, change from baseline, Median ([3]; Week 4): −0.40%
- HbA1c, observed data, Mean ([3]; Week 4): 7.64%
- HbA1c, observed data, Median ([3]; Week 4): 7.50%
- HbA1c, change from baseline, Mean ([3]; Week 8): −0.68%
- HbA1c, change from baseline, Median ([3]; Week 8): −0.60%
- HbA1c, observed data, Mean ([3]; Week 8): 7.41%
- HbA1c, observed data, Median ([3]; Week 8): 7.30%
- HbA1c, change from baseline, Mean ([3]; Week 12): −0.81%
- HbA1c, change from baseline, Median ([3]; Week 12): −0.80%
- HbA1c, observed data, Mean ([3]; Week 12): 7.26%
- HbA1c, observed data, Median ([3]; Week 12): 7.20%
- HbA1c, change from baseline, Mean ([3]; Week 16): −0.79%
- HbA1c, change from baseline, Median ([3]; Week 16): −0.70%
- HbA1c, observed data, Mean ([3]; Week 16): 7.26%
- HbA1c, observed data, Median ([3]; Week 16): 7.15%
- HbA1c, change from baseline, Mean ([3]; Week 24 (LOCF)): −0.70%
- HbA1c, change from baseline, Median ([3]; Week 24 (LOCF)): −0.70%
- HbA1c, observed data, Mean ([3]; Week 24 (LOCF)): 7.38%
- HbA1c, observed data, Median ([3]; Week 24 (LOCF)): 7.30%
- HbA1c, change from baseline, Mean ([3]; Week 24): −0.81%
- HbA1c, change from baseline, Median ([3]; Week 24): −0.80%
- HbA1c, observed data, Mean ([3]; Week 24): 7.21%
- HbA1c, observed data, Median ([3]; Week 24): 7.20%
- patients with HbA1c≦[…] at Week 24 ([3]; add-on to metformin, mITT): 26.3%
- LS mean change from baseline to Week 24 in HbA1c ([3]; add-on to metformin, mITT, LOCF): −0.72%
- HbA1c Change from baseline to week 24 (LOCF) Mean (SD) ([3]; mITT): −0.70%
- HbA1c Change from baseline to week 24 (LOCF) Median ([3]; mITT): −0.70%
- Patients with HbA1c <7.0% at Week 24 ([3]; mITT): 64 (40.0%) n (%)
- patients with HbA1c≦[…] at Week 24 ([3]; mITT): 42 (26.3%) n (%)
- HbA1c Change from baseline to week 24 (LOCF) LS Mean (SE) ([3]; mITT, ANCOVA): −0.72%
- HbA1c Week 24 (LOCF) Mean (SD) ([3]; mITT, Week 24 (LOCF)): 7.38%
- HbA1c Week 24 (LOCF) Median ([3]; mITT, Week 24 (LOCF)): 7.30%
- HbA1c Baseline Mean (SD) ([3]; mITT, baseline): 8.08%
- HbA1c Baseline Median ([3]; mITT, baseline): 8.00%
- AE form for suspected pancreatitis: Blood amylase increased ([4]; human): 1 (0.6%) n (%)
- AE form for suspected pancreatitis: Lipase increased ([4]; human): 1 (0.6%) n (%)
- Amylase ≧3 ULN, patients with at least one post-baseline PCSA ([4]; human): 0/161
- Lipase ≧3 ULN, patients with at least one post-baseline PCSA ([4]; human): 3/161 (1.9%) n/N1 (%)
- Patients with a specific adverse event form for suspected pancreatitis completed: Any ([4]; human): 2 (1.2%) n (%)
- patients with AE form for suspected pancreatitis completed (amylase and/or lipase above twice ULN) ([4]; human): 1.2%
- patients with elevated lipase 3ULN ([4]; human): 1.9%
- cases of pancreatitis reported in the study [4]: No case
- patients with elevated amylase 3ULN [4]: No one
- Allergic reaction by ARAC: Anaphylactic reaction [5]: 0 n (%)
- Allergic reaction by ARAC: Conjunctivitis allergic [5]: 0 n (%)
- Allergic reaction by ARAC: Dermatitis contact [5]: 1 (0.6%) n (%)
- Events adjudicated as an allergic reaction by ARAC [5]: 1 (0.6%) n (%)
- patients with events adjudicated as allergic reactions by ARAC ([5]; 24 weeks): 0.6%
- Allergic reaction by ARAC: Anaphylactic reaction ([5]; ip): 0 n (%)
- Allergic reaction by ARAC: Conjunctivitis allergic ([5]; ip): 0 n (%)
- Allergic reaction by ARAC: Dermatitis contact ([5]; ip): 1 (0.6%) n (%)
- Glucose excursion Change from baseline to week 24 (LOCF) Mean (SD) [6]: -0.60 mmol/L
- Glucose excursion Change from baseline to week 24 (LOCF) Median [6]: -0.83 mmol/L
- Glucose excursion Change from baseline to week 24 (LOCF) LS Mean (SE) ([6]; ANCOVA): -0.42 mmol/L
- Glucose excursion Week 24 (LOCF) Mean (SD) ([6]; Week 24 (LOCF)): 3.87 mmol/L
- Glucose excursion Week 24 (LOCF) Median ([6]; Week 24 (LOCF)): 3.89 mmol/L
- Glucose excursion Baseline Mean (SD) ([6]; baseline): 4.47 mmol/L
- Glucose excursion Baseline Median ([6]; baseline): 4.33 mmol/L
- LS mean change from baseline to Week 24 in HOMA-β ([7]; add-on to metformin): 17.79
- HOMA-β Change from baseline to week 24 (LOCF) Mean (SD) [7]: 18.91 (59.19)
- HOMA-β Change from baseline to week 24 (LOCF) Median [7]: 8.32
- HOMA-β Change from baseline to week 24 (LOCF) LS Mean (SE) ([7]; ANCOVA): 17.79 (9.958)
- HOMA-β Week 24 (LOCF) Mean (SD) ([7]; Week 24 (LOCF)): 79.24 (71.77)
- HOMA-β Week 24 (LOCF) Median ([7]; Week 24 (LOCF)): 58.37
- HOMA-β Baseline Mean (SD) ([7]; baseline): 60.33 (48.79)
- HOMA-β Baseline Median ([7]; baseline): 47.65
- AE form for increased calcitonin ≧20 pg/mL: Blood calcitonin increased [8]: 1 (0.6%) n (%)
- Patients with a specific adverse event form for increased calcitonin ≧20 pg/mL completed: Any [8]: 1 (0.6%) n (%)
- patients with AE form for increased calcitonin ≧20 pg/mL completed [8]: 0.6%
- patients with at least one value of calcitonin ≧20 ng/L-<50 ng/L [8]: 0.6%
- Status at last study contact: Dead ([9]; Randomized population): 0 n (%)
- Status at last study contact: Alive ([9]; human, in vivo, 24 weeks): 161 (100%) n (%)
- Treatment discontinuation: Adverse event ([9]; human, in vivo, 24 weeks): 5 (3.1%) n (%)
- treatment discontinuation due to adverse events ([9]; human, in vivo, 24 weeks): 3.1%
- Any symptomatic hypoglycemia: Number of patients with events ([10]; human): 3 (1.9%) n (%)
- Any symptomatic hypoglycemia: Number of patients with events per 100 patient years ([10]; human): 4.1 per 100 patient years
- Symptomatic hypoglycemia, Blood glucose <60 mg/dL: Number of patients with events ([10]; human): 1 (0.6%) n (%)
- Symptomatic hypoglycemia, Blood glucose <60 mg/dL: Number of patients with events per 100 patient years ([10]; human): 1.4 per 100 patient years
- Symptomatic hypoglycemia, No blood glucose reported: Number of patients with events ([10]; human): 2 (1.2%) n (%)
- Symptomatic hypoglycemia, No blood glucose reported: Number of patients with events per 100 patient years ([10]; human): 2.7 per 100 patient years
- number of symptomatic hypoglycemia events as defined in the protocol ([10]; human, 24 weeks): 3 events
- patients with symptomatic hypoglycemia as defined in the protocol ([10]; human, 24 weeks): 1.9%
- symptomatic hypoglycemia events severe according to the protocol definition [10]: None
- Any injection site reactions ([11]; human): 2 (1.2%) n (%)
- Injection site erythema ([11]; human): 0 n (%)
- Injection site haematoma ([11]; human): 2 (1.2%) n (%)
- Injection site haemorrhage ([11]; human): 0 n (%)
- Injection site infection ([11]; human): 0 n (%)
- Injection site pain ([11]; human): 1 (0.6%) n (%)
- Injection site papule ([11]; human): 0 n (%)
- Injection site pruritus ([11]; human): 0 n (%)
- Injection site rash ([11]; human): 0 n (%)
- Injection site reactions: Investigator reported PTs ([11]; human): 2 (1.2%) n (%)
- Injection site reactions: PTs by ARAC diagnosis ([11]; human): 0 n (%)
- patients experiencing injection site reaction AEs ([11]; human): 1.2%
- injection site reactions serious or severe in intensity [11]: None
